Here are results for 57 compounds from paper PMC4336329 (PLoS ONE, 2015).

Structures are written as SMILES. About 14,000 (4.5%) of roughly 310,000 compounds showed an effect of 50% or more. Effects have a minus sign here. This is one part of the list.
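Further: peak tail current of the secondary pulse compared with the same well before compound.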

For this assay, the target named is human ether-à-go-go-related gene (hERG) potassium channel (human, UniProt Q12809). Put plainly: primary screen, population patch clamp on CHO cells stably expressing hERG.
Sequence of human ether-à-go-go-related gene (hERG) potassium channel (Q12809 whole entry, looked up): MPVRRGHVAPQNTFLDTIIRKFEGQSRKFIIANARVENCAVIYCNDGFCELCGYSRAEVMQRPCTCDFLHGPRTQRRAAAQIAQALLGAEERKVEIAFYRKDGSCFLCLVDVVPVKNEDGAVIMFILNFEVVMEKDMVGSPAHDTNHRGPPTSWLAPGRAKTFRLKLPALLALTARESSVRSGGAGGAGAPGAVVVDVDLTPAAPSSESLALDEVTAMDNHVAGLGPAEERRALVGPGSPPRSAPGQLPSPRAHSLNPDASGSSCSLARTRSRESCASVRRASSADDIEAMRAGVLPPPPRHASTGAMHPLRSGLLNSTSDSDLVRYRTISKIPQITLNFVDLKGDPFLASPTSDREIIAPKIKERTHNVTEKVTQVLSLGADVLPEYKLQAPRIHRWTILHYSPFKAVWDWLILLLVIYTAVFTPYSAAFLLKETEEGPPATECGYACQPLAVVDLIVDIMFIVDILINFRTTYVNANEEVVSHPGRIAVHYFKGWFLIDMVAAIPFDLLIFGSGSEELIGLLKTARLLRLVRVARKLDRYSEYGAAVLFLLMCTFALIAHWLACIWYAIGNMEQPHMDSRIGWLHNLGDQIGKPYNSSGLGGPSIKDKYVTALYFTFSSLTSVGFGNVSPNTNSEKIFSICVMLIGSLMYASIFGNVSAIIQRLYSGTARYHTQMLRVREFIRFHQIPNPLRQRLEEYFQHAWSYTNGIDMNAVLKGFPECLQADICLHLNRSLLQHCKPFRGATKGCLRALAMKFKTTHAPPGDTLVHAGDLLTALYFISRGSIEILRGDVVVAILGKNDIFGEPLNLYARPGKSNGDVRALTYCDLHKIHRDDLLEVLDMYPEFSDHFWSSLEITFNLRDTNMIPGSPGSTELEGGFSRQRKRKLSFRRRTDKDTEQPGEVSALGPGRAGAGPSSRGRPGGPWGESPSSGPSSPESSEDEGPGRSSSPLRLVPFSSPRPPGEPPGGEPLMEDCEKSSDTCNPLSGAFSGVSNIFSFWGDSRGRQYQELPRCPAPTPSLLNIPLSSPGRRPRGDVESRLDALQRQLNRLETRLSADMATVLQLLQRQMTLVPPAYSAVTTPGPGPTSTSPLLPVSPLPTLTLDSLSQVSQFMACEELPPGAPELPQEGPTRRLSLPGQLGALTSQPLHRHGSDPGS
As for `O=c1[nH]c(=O)n(-c2cccc(Cl)c2)c(O)c1/C=N/c1ccccn1`, the “hERG current change (%, negative = inhibition) at 10uM” value worked out at 14%. On to `O=C(NCc1ccccn1)C1CCC(CNS(=O)(=O)c2cccc3nsnc23)CC1` (stereo not drawn), for which the “hERG current change (%, negative = inhibition) at 10uM” value is given as 2.45%. As to `Cc1ccc2nc(-c3ccc(NC(=O)C4CCCO4)cc3)[nH]c2c1` (stereo not drawn), the “hERG current change (%, negative = inhibition) at 10uM” value is -3.48%. Take `Cc1ccc(N2CCN(C3=NC(=O)C(Cc4ccccc4)S3)CC2)cc1` (stereo not drawn): the “hERG current change (%, negative = inhibition) at 10uM” value is given as -40.1%.

Turning to `CC1CCN(C(=O)c2[nH]cnc2C(=O)NCC(=O)OCc2ccccc2)CC1`, the “hERG current change (%, negative = inhibition) at 10uM” value is -1.6%. In the case of `COc1cc(C2SCC(=O)N2c2c(C)n(C)n(-c3ccccc3)c2=O)ccc1O` (stereo not drawn), the “hERG current change (%, negative = inhibition) at 10uM” value is -1.99%. In the case of `CCC(=O)Nc1nnc(S(=O)(=O)N2c3ccccc3CC2C)s1` (stereo not drawn) it was 4.93%; in that of `Cc1ccc2cc(CCNS(=O)(=O)c3ccc(Cl)cc3)c(=O)[nH]c2c1C`, 19.1%; in that of `C(=N\Nc1nc2ccccc2s1)/c1ccccn1`, -0.214%. For the compound `Cc1ccc(CNC(=O)C2CCCN(c3nc(C)cc(C)n3)C2)cc1` (stereo not drawn), the “hERG current change (%, negative = inhibition) at 10uM” value is on record as 13.8%. For `Cn1c(=O)[nH]c(=O)c2c1nc(Br)n2CC(O)COc1ccc(Cl)cc1` (stereo not drawn), the “hERG current change (%, negative = inhibition) at 10uM” value was -63.6%. `COc1ccc(C)cc1NC(=O)NCCCCc1ccccc1`: the “hERG current change (%, negative = inhibition) at 10uM” value is recorded as -0.4%. Turning to `Cc1cccc2c(=O)n3c(nc12)CCCCC3`, the “hERG current change (%, negative = inhibition) at 10uM” value was found to be 2.19%. In the case of `CC(C)CN(CCCNC(=O)CN1C(=O)COc2ccc(S(=O)(=O)N3CCCCCC3)cc21)CC(C)C` it was -52%; in that of `O=C(c1ccc(Cl)cc1)N1CCN(c2ccc(F)cc2)CC1`, -34%.

`O=C(c1cccc(S(=O)(=O)N2CCN(c3ccc(F)cc3)CC2)c1)N1CCCC(C(F)(F)F)C1` (stereo not drawn): the “hERG current change (%, negative = inhibition) at 10uM” value was -25.3%. With `COc1ccc(C(=O)NCCCCCC(=O)N/N=C/c2ccco2)cc1OC`, the “hERG current change (%, negative = inhibition) at 10uM” value was 19.4%. In the case of `CCn1c(=NC(=O)CSC(C)=O)sc2ccccc21` it was -17.3%. On to `CCOC(=O)C1C(c2cccs2)NC(=O)NC1(O)C(F)(F)F` (stereo not drawn), for which the “hERG current change (%, negative = inhibition) at 10uM” value is -1.78%. As to `O=C1C(Cl)=C(NC2CCCCC2)C(=O)N1Cc1ccccc1`, the “hERG current change (%, negative = inhibition) at 10uM” value is 0.0781%. Consider `CCCOCC1CC2(CC(C)(c3csc(N)n3)OC2=O)C(=O)O1` (stereo not drawn), for which the “hERG current change (%, negative = inhibition) at 10uM” value is -7.03%. Regarding `COc1cccc(S(=O)(=O)NCc2ccc(C(=O)N3CCN(c4ccccc4OC)CC3)cc2)c1`, the “hERG current change (%, negative = inhibition) at 10uM” value is recorded as -10.1%. As to `O=C(NCc1ccccc1)C1CCCN(c2nc3ccsc3c(=O)s2)C1` (stereo not drawn), the “hERG current change (%, negative = inhibition) at 10uM” value is on record as -0.465%. Consider `C=C1CC(C(=O)N/N=C/c2ccc(O)cc2)C1`, for which the “hERG current change (%, negative = inhibition) at 10uM” value was -2.57%. For the compound `O=C(C1CC(c2ccccc2O)=NO1)N1CCCC1` (stereo not drawn), the “hERG current change (%, negative = inhibition) at 10uM” value is -2.65%. Turning to `Cc1ccc(-n2ncc3c(=O)n(-c4ccc(C)c(C)c4)c(C)nc32)cc1`, the “hERG current change (%, negative = inhibition) at 10uM” value stood at 6.76%. As to `COc1cc(CN2CCCC(CO)(Cc3ccccc3F)C2)ccc1O` (stereo not drawn), the “hERG current change (%, negative = inhibition) at 10uM” value was -22.5%. In the case of `O=C(NC1CCCCC1)C(c1ccc(F)cc1)N(Cc1ccco1)C(=O)Cn1nnc2ccccc21` (stereo not drawn) it was 2.6%. Regarding `CC(=O)Nc1ccc2c(c1)ncn2C`, the “hERG current change (%, negative = inhibition) at 10uM” value was found to be 22.2%. On to `COc1c(C)cc(C(=O)C2CCCN(C(=O)c3cccc(-n4cccn4)c3)C2)cc1C` (stereo not drawn), for which the “hERG current change (%, negative = inhibition) at 10uM” value is given as -34%. The same measure for `CO/N=C/C1C(=O)NN=C1c1ccccc1` (stereo not drawn): 7.12%; for `CC(C)COC(=O)OCN1C(=O)CN(CCN2CC(=O)N(COC(=O)OCC(C)C)C(=O)C2)CC1=O`: -28.3%; for `O=C1Nc2cc(Cl)c(Cl)cc2N(O)N1c1ccccc1Cl`: 11.1%. As to `CC(Oc1ccc(Br)cc1)C(=O)NCC(C)(C)N1CCOCC1` (stereo not drawn), the “hERG current change (%, negative = inhibition) at 10uM” value is -26%. For `COc1ccc(NC2CCCN(C(=O)CCCN3CCCCC3=O)C2)cc1` (stereo not drawn), the “hERG current change (%, negative = inhibition) at 10uM” value stood at 11.5%. Consider `COc1ccc(C2=NOC(C)(c3nnc(-c4ccccc4)o3)C2)cc1` (stereo not drawn), for which the “hERG current change (%, negative = inhibition) at 10uM” value is reported as -58.3%.

With `COc1ccc(CN2CCN(C(=O)CN3C(=O)C4C5C=CC(C5)C4C3=O)CC2)c(OC)c1OC` (stereo not drawn), the “hERG current change (%, negative = inhibition) at 10uM” value came to 4.91%. Consider `CC1=C(c2ccccc2)[N+](=O)C2(CCCCC2)N1[O-]`, for which the “hERG current change (%, negative = inhibition) at 10uM” value is recorded as -4.49%. In the case of `O=C(C1CCN(c2nc3ccc(Br)cc3s2)CC1)N1CCC2(CC1)OCCO2` it was -62.3%; in that of `COc1ccccc1-n1cc(CN2CCN(C3CCCCC3)C(CCO)C2)cn1` (stereo not drawn), -11.4%; in that of `COc1ccc(Nc2nnc(Cc3ccncc3)c3ccccc23)c(OC)c1`, -72.7%. For `O=C(O)c1ccc(NC(=O)c2cn(-c3ccccc3)nc2-c2ccc(F)cc2)cc1`, the “hERG current change (%, negative = inhibition) at 10uM” value is on record as 17.5%. `CC(C)N(Cc1ccccc1)C(=S)NCc1ccccc1`: the “hERG current change (%, negative = inhibition) at 10uM” value is on record as -15%. For the compound `O=c1oc(-c2ccc([N+](=O)[O-])cc2)nc2ccc(O)cc12`, the “hERG current change (%, negative = inhibition) at 10uM” value is -1.05%. On to `COc1ccc(C(C(=O)NC(C)(C)C)N(Cc2ccco2)C(=O)CCC(=O)Nc2cc(C)on2)cc1` (stereo not drawn), for which the “hERG current change (%, negative = inhibition) at 10uM” value turned out to be 0.256%. In the case of `COc1cc2c(cc1OC)C(c1ccccc1F)OC(=O)C2` (stereo not drawn), the “hERG current change (%, negative = inhibition) at 10uM” value turned out to be 6.96%. In the case of `Cc1cc(C)cc(NC(=O)CCn2ccnc2C)c1` it was -8.43%; in that of `COc1ccccc1N1C(=O)c2cccnc2C1=O`, 4.99%; in that of `CCOc1ccccc1-n1c(SCC(=O)N(C(C)C)C(C)C)nnc1-c1cccnc1`, 0.996%. In the case of `Cc1cc(C)nc(NS(=O)(=O)c2ccc(NC(=O)Cn3c(=O)oc4ccccc43)cc2)n1`, the “hERG current change (%, negative = inhibition) at 10uM” value is listed as 12.1%. For `Cc1cc(C)cc(NC(=O)CSc2nccn2Cc2ccco2)c1`, the “hERG current change (%, negative = inhibition) at 10uM” value was -9.2%. For `Oc1ccc[nH+]c1SCc1ccccc1.[Br-]`, the “hERG current change (%, negative = inhibition) at 10uM” value is on record as 12.7%. The same measure for `O=C(NCc1ccc(Cl)cc1)c1cc(S(=O)(=O)N2CCCCC2)c[nH]1`: -7.98%. As to `COCCNC(=O)CN1C(=O)COc2ccc(S(=O)(=O)N3CC(C)CC(C)C3)cc21` (stereo not drawn), the “hERG current change (%, negative = inhibition) at 10uM” value stood at 2.77%. Consider `O=C(c1cccs1)N1CCC(N2CCN(c3ccccc3)CC2)CC1`, for which the “hERG current change (%, negative = inhibition) at 10uM” value is -51.2%. On to `C/C(=C\C(=O)c1sccc1Cl)N(C)C`, for which the “hERG current change (%, negative = inhibition) at 10uM” value was 0.12%.

Turning to `O=C(CN1C(=O)/C(=C/c2ccc(F)cc2)SC1=S)N1CCN(CCc2ccccn2)CC1`, the “hERG current change (%, negative = inhibition) at 10uM” value is listed as -32.4%.
